# In the RNAGym collection of RNA variant scans (doi:10.1073/pnas.2313332121):
# Variants at the floor of the assay are shown more often than the library holds them.
# B1: TPR 5TU (parent)
# chain: GGAUCUUCUCGAUCUAACAAAAAAGACAAAUCUGCCACAAAGCUUGAGAGCAUCUUCGGAUGCAGAGGCGGCAGCCUUCGGUGGCGCGAUAGCGCCAACGUUCUCAACUAUGACACGCAAAACGCGUGCUCCGUUGAAUGGAGUUUAUCAUG
# Variants of: B1
# Experiment: polymerase ribozyme fitness, log enrichment relative to wild type (log ratio); higher = more active; in vitro selection for triplet polymerase activity
# Procedure, shortened: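 Only genotypes with ≥10 input reads and ≥1 read per output were kept after Illumina sequencing of input and output libraries. These libraries were PCR-built, transcribed mutants of each subunit of a heterodimeric triplet polymerase ribozyme, each put through one triplicate in vitro selection round with frozen incubation at −7 °C, gel excision of extended constructs, streptavidin-bead capture and RT-PCR. Fitness is a logarithmic ratio of genotype enrichment to wild-type enrichment, from inverse-variance-weighted replicate averages, with the logarithm in base 2.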
row,Variant,polymerase ribozyme fitness (log ratio)
1,C5A A16C A21U A24C C27G A28G C51U C76A C114U U139A,≤ -4.2
2,C5G A26G C54U G83A,≤ -4.2
3,U4C A20U A40U A60G C85A C108G C116U,≤ -4.2
4,U4G U13A A40U G58A G68U U78C C85U A107C,≤ -4.2
5,C5A A19U C51G A73G A138C,≤ -4.2
6,U4C U77G G83C A89U,≤ -4.2
7,U4G C35G C95G U134A G136U,-4.16
8,C5G A28U G83A G124U C125U U144C,≤ -4.2
9,U4C C36A A47C C96G A107G C132U A150G G152A,≤ -4.2
10,U4G G42C C76G U90C C93G A113C,≤ -4.2
11,C5A A40C A47C C87A A115G,≤ -4.2
12,C5A A29U C51G A52U C85G A89U C93G,≤ -4.2
13,U4G C36A C87U,≤ -4.2
14,C5G A28U G46A A52C U53A G71A C93A C105G C114G G141C,≤ -4.2
15,U4G A39G A142G,-3.9
16,C5G A16C A21C A22C A73G C96A A113U,≤ -4.2
17,U4G C5G G67U G94C A119C U134G A147C,≤ -4.2
18,C5A A23G G68U U78C A91C A110U,≤ -4.2
19,U4G G83U A107C U130A,≤ -4.2
20,U4C G68U C85U A121U,≤ -4.2
21,U4G A28G G84A A147C,≤ -4.2
22,U4G A29G U31C C93A C95A U102C A147U,≤ -4.2
23,U4C U7G U15G C18U A37C C95U U145C,≤ -4.2
24,C5A U55C C87G,≤ -4.2

row,Variant,polymerase ribozyme fitness (log ratio)
1,C5G A26C C27A A40C,≤ -4.2
2,U4C U56G C63U C93G,-3.11
3,U4C U15C A22C A29U C43G U44A U45G C57U G59U C93U,≤ -4.2
4,U4G A29C G94U U146A U148C,≤ -4.2
5,U4G A41U G59A C85U U127G,≤ -4.2
6,U4C C10U G11C A41U C85A A91G,≤ -4.2
7,U4A U13A A30U C85U A106C A107G,≤ -4.2
8,C5G A40C U45A C87G C105A A119G C125A U144A U145C,≤ -4.2
9,C5A C54A C57A G58A G68A A89U C95G,≤ -4.2
10,C5A C10U A41C A49C U139G U151G,≤ -4.2
11,C5A A26U C35G A39U C76U C85U C118U A119C,-4.09
12,U4G C54A U61A A91U C95U A97G C103G,≤ -4.2
13,C5A A28U,-3.92
14,U4G A37C G48A C93A,≤ -4.2
15,U4G C32A C75U G84U U134A,≤ -4.2
16,C5G A16G A21U C93U U101G A110C C116U G124C,≤ -4.2
17,U4C C85A C95G A115G,-3.75
18,U4C G92C U139A U148C A150U,≤ -4.2
19,U4G A12G C18A A21G A91U C95G G100U A137G,≤ -4.2
20,U4C C32G C35A A47G,≤ -4.2
21,C5A C57A A119U A137G U146G,-2.37
22,U4G U7A C27A G48C G88U G126U U144G,≤ -4.2
23,C5A A24G U31A U61C C87U G136U,≤ -4.2
24,U4C A29C G71A C76A G83U U104A A137U,≤ -4.2

row,Variant,polymerase ribozyme fitness (log ratio)
1,C5A A21C G74A U82G G92U,≤ -4.2
2,U4C G48A G84U G141U,≤ -4.2
3,C5A C85U A97U G143A,-1.87
4,C5G A23C A52C G83C G117U,≤ -4.2
5,U4C A47C A64G A91U A119U,≤ -4.2
6,U4C G83A C87G,≤ -4.2
7,C5A A16G G50U C51A A89U U134G A137G G140A A142C A147C,≤ -4.2
8,U4A U15C A20C A40U A47C A64G G74A G92U C118U,≤ -4.2
9,U4C G71A C103A A147C,≤ -4.2
10,C5A C38G A41U U55A C85A A91G A110G G126A,≤ -4.2
11,U4G A73G A97G,0.0284
12,U4G A24C C35A C38A A47C U53A G68A U77A A115G,≤ -4.2
13,U4G U56G U144A,-1.19
14,C5A C8G A17G A21U G25A C27G U134G C149G,≤ -4.2
15,U4G A29G C43U G71A G83A C95U C108A,≤ -4.2
16,C5A U6A C14G C27A G42C U53G A66C C75G G84U A142G,≤ -4.2
17,U4A U9A U15G C36G U82A G94C,≤ -4.2
18,C5A A30C G94U G117U U135G G136A,≤ -4.2
19,C5G A24C A28G G74A G81U C99G G128C,≤ -4.2
20,U4G A97G C103G,-3.15
21,U4C A19U G50C C76U U144G,≤ -4.2
22,C5A A24U U55A G92U C105U U139C,≤ -4.2
23,C5A C10U A19G C75U C93A U102G,≤ -4.2
24,C5G A21C A29U C51A C85U C87U U139G,≤ -4.2

row,Variant,polymerase ribozyme fitness (log ratio)
1,C5G A19U A24U G50C U78C A97G,≤ -4.2
2,C5A A23C C27A C43A G50U C85U C118G,≤ -4.2
3,C5A A49C C85G A89G U146C,≤ -4.2
4,U4C A12U A21G G59A C85G G124U,-2.83
5,C5A U44G,≤ -4.2
6,U4A G92A G141A,-3.96
7,U4C U6G G74C G80C G92U C103G A106U,≤ -4.2
8,C5A C27A C87A U109A G126A,≤ -4.2
9,U4G A28G U90G C96U G124C C149A,≤ -4.2
10,C5G A37C G86U A120U U146G,≤ -4.2
11,C5A C35U A66G G74A C79A G83U C85A C95A U102G U104G,≤ -4.2
12,U4G U13G C96A A120G G133U A142U,≤ -4.2
13,U4A U31G C108U C114U C132U,≤ -4.2
14,C5G A22G C103G A110U G143C A150G,≤ -4.2
15,U4G C87G,≤ -4.2
16,C5G A16G A20U U61A C75U C96A A119U G133C,≤ -4.2
17,U4G C27U C43U G68C A89G G92A U151A,≤ -4.2
18,U4C G11U A22U G50A G81A U101A,≤ -4.2
19,U4C A20U A29U G46C C54U C85U C116U,≤ -4.2
20,U4G C57A A73G C87U,-0.214
21,U4G A23U A52G G70C G86U A89G A106G,≤ -4.2
22,C5A A49G C79A G84A G117C,≤ -4.2
23,C5G A16G A107C,≤ -4.2
24,C5G A29C G58U C93U G94A G143U,≤ -4.2

row,Variant,polymerase ribozyme fitness (log ratio)
1,U4C A16U G83U U90C A113U U148C,≤ -4.2
2,C5G A20G C75U C87U A119G A142G,-3.16
3,C5A C27U C85U C93G A107G,≤ -4.2
4,C5A A26C A30U A52C G70A G86C,≤ -4.2
5,C5A A17U U56A U127A,-4.16
6,U4C U6G U33A C35G,≤ -4.2
7,C5A G65C G74U C85G,≤ -4.2
8,U4G G42A G88U A91G C103G C114U,≤ -4.2
9,C5A A40U A60C G84U C116U A150U,≤ -4.2
10,U4C A52G G58U,-0.303
11,U4A G86A C87A,≤ -4.2
12,C5A A20U A28U A30C C85A C125U,≤ -4.2
13,U4G A26U A37U C96U C118U,≤ -4.2
14,C5G A21U C76G G92U C96A A119C A138U,≤ -4.2
15,C5G A37C C38A C93G C99A G126U,≤ -4.2
16,U4G C87A C99U,≤ -4.2
17,C5A G46A U53A C93G U101C U109G G140C,≤ -4.2
18,U4G G84U G88A,≤ -4.2
19,U4G A17C A47C C69G G86U G88U C105U G140U,≤ -4.2
20,U4C C18G A21U G50A A89C G141U,≤ -4.2
21,C5G A39C G59C C76A G88C C99A,≤ -4.2
22,C5G A26C C27A A40C A66C,≤ -4.2
23,C5A G68C G80C C85G,≤ -4.2
24,U4C A19U A40U A60U A97U G143U,≤ -4.2

row,Variant,polymerase ribozyme fitness (log ratio)
1,U4C A49C C125A,≤ -4.2
2,C5G A22G U45A C87U A89U C95U U146C,≤ -4.2
3,C5A G42C C85U G112A,≤ -4.2
4,C5G A29U G48C U53G U56A A106C,≤ -4.2
5,U4G A41U G50C C85G,≤ -4.2
6,U4C C8U C75U C93U G133C,≤ -4.2
7,C5A A22U C75U C76A G88A A89C A91G C105U A119G U144G,≤ -4.2
8,C5G A21U G58C U78C C87U C96U A115U G141U,≤ -4.2
9,U4C A39C C75G U77A,≤ -4.2
10,C5A A40G C63U A64G U77A G84A,≤ -4.2
11,C5A C27A G34U U56A C125G,≤ -4.2
12,U4G A20C G88A G141C,≤ -4.2
13,U4C C14G A40C A60U A64G C93U A97U A147G,≤ -4.2
14,C5A C35A U55A A91G G100U G126A A147G,≤ -4.2
15,U4C A22C G25C A28U G42C U44C C69A A98G U145G,≤ -4.2
16,U4G C18G A20U A21U A40C A73G G74U A107C,≤ -4.2
17,U4G A12G A22U U53A C72G G100A U111G C125U,≤ -4.2
18,U4G A52C G83A,-2.69
19,C5A C96A A97G C108U,≤ -4.2
20,U4G C32G C85U U151G,≤ -4.2
21,C5A A16G U44A C57G C69U U78G C79G G80U U109G,≤ -4.2
22,U4A U6A A23U A49C G50A C85U,≤ -4.2
23,C5G A39G U56A A60C C63A G84U G94U U134C,≤ -4.2
24,U4G A12U G84A G112A,≤ -4.2

row,Variant,polymerase ribozyme fitness (log ratio)
1,U4C A23C A37G U53A,≤ -4.2
2,U4G A20G A37U C57A G65U G84A G100U G141U,≤ -4.2
3,C5G A30C A60C C96A C103A C131G,≤ -4.2
4,C5A C8G C10G A52G G84A U127A U139A,≤ -4.2
5,U4G U6A A26C A47U G48C C51A G86A,≤ -4.2
6,C5G A21C C27A C38U C79A C87U,≤ -4.2
7,U4C U6C G48A C87U U102G A113U,≤ -4.2
8,C5A U13C C38U A121G U127C,-4.07
9,C5A C87A C149A,≤ -4.2
10,U4C U9A A41C G48C C51A G68A G83C,≤ -4.2
11,U4G A12U G50U A91U,≤ -4.2
12,C5G A16C A29G G71A C99A C125U G140U,≤ -4.2
13,U4G A22U C43G C51U C54U G67C U134C U135G G141U,≤ -4.2
14,U4G C43G U44A C85U C103A,≤ -4.2
15,U4C G50C C54U C69U A73U C76G A91C G92A A97U C125G U134A,≤ -4.2
16,U4G A23G A40G G86C G92A C99G G126U G133A U146G,≤ -4.2
17,U4C C18A A24G C57G A60C C93U,≤ -4.2
18,C5A A20U C43G A64C G88C,≤ -4.2
19,U4C A21U G84U A106U A137U G152U,≤ -4.2
20,C5G A28U C69A G86A G141C,≤ -4.2
21,U4G A37U G81A C99A A106C U127G,≤ -4.2
22,C5G A29U C54U G59C G86U C132G,≤ -4.2
23,U4C C85U U101G C131G,≤ -4.2
